This is one part of the list.
How the values were obtained:
Assay in all cases: glycan array binding signal (z-score within array); higher = stronger binding
Settings in all cases: glycan notation: IUPAC condensed, linker removed
[1] = biological target: Fuc(a1-2)[GalNAc(a1-3)]Gal(b1-3)GlcNAc(b1-6)GalNAc
In short: (§1)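 Glycan array data were curated from 3228 arrays in the Consortium for Functional Glycomics database and kept only where the protein sequence was available. Glycan names were converted to IUPAC-condensed notation, and columns mapping to the same glycan were averaged. The binding signal is a within-array Z-score, averaged across arrays of the same protein sequence at different concentrations or buffers and across linkers. Negative Z-scores can be read as non-binding.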

[2] = biological target: Fuc(a1-2)[GalNAc(a1-3)]Gal(b1-4)Glc
In short: as §1

[3] = biological target: Fuc(a1-2)[GalNAc(a1-3)]Gal(b1-4)GlcNAc
In short: as §1

[4] = biological target: Fuc(a1-2)[GalNAc(a1-3)]Gal(b1-4)GlcNAc(b1-2)Man
In short: as §1

[5] = biological target: Fuc(a1-2)[GalNAc(a1-3)]Gal(b1-4)GlcNAc(b1-2)Man(a1-3)[Fuc(a1-2)[GalNAc(a1-3)]Gal(b1-4)GlcNAc(b1-2)Man(a1-6)]Man(b1-4)GlcNAc(b1-4)GlcNAc
In short: as §1

[6] = biological target: Fuc(a1-2)[GalNAc(a1-3)]Gal(b1-4)GlcNAc(b1-2)Man(a1-3)[Fuc(a1-2)[GalNAc(a1-3)]Gal(b1-4)GlcNAc(b1-2)Man(a1-6)]Man(b1-4)GlcNAc(b1-4)[Fuc(a1-6)]GlcNAc
In short: as §1

[7] = biological target: Fuc(a1-2)[GalNAc(a1-3)]Gal(b1-4)GlcNAc(b1-3)Gal(b1-4)GlcNAc
In short: as §1

[8] = biological target: Fuc(a1-2)[GalNAc(a1-3)]Gal(b1-4)GlcNAc(b1-3)Gal(b1-4)GlcNAc(b1-3)Gal(b1-4)GlcNAc
In short: as §1

[9] = biological target: Fuc(a1-2)[GalNAc(a1-3)]Gal(b1-4)GlcNAc(b1-3)GalNAc
In short: as §1

[10] = biological target: Fuc(a1-2)[GalNAc(a1-3)]Gal(b1-4)GlcNAc(b1-3)[Fuc(a1-2)[GalNAc(a1-3)]Gal(b1-4)GlcNAc(b1-6)]GalNAc
In short: as §1

[11] = biological target: Fuc(a1-2)[GalNAc(a1-3)]Gal(b1-4)GlcNAc(b1-6)GalNAc
In short: as §1

[12] = biological target: Fuc(a1-2)[GalNAc(a1-3)]Gal(b1-4)[Fuc(a1-3)]GlcNAc
In short: as §1

[13] = biological target: Fuc(a1-2)[GalNAc(a1-3)]Gal(b1-4)[Fuc(a1-3)]GlcNAc(b1-3)GalNAc
In short: as §1

[14] = biological target: Fuc(a1-2)[GalNAc(a1-4)]Gal(b1-4)GlcNAc
In short: as §1

[15] = biological target: Fuc(a1-2)[GalNAc(b1-3)]Gal
In short: as §1

[16] = biological target: Fuc(a1-3)GlcNAc
In short: as §1

[17] = biological target: Fuc(a1-3)[Gal(b1-4)]Glc6S
In short: as §1

[18] = biological target: Fuc(a1-3)[Gal(b1-4)]GlcNAc
In short: as §1

[19] = biological target: Fuc(a1-3)[Gal(b1-4)]GlcNAc(b1-2)Man
In short: as §1

[20] = biological target: Fuc(a1-3)[Gal(b1-4)]GlcNAc(b1-2)Man(a1-3)[Fuc(a1-3)[Gal(b1-4)]GlcNAc(b1-2)Man(a1-6)]Man(b1-4)GlcNAc(b1-4)GlcNAc
In short: as §1

[21] = biological target: Fuc(a1-3)[Gal(b1-4)]GlcNAc(b1-2)Man(a1-3)[Fuc(a1-3)[Gal(b1-4)]GlcNAc(b1-2)Man(a1-6)]Man(b1-4)GlcNAc(b1-4)[Fuc(a1-6)]GlcNAc
In short: as §1

[22] = biological target: Fuc(a1-3)[Gal(b1-4)]GlcNAc(b1-3)Gal(b1-3)[Fuc(a1-4)]GlcNAc
In short: as §1

[23] = biological target: Fuc(a1-3)[Gal(b1-4)]GlcNAc(b1-3)GalNAc
In short: as §1

[24] = biological target: Fuc(a1-3)[Gal(b1-4)]GlcNAc(b1-4)Gal(b1-4)[Fuc(a1-3)]GlcNAc
In short: as §1

[25] = biological target: Fuc(a1-3)[Gal(b1-4)]GlcNAc(b1-4)Gal(b1-4)[Fuc(a1-3)]GlcNAc(b1-4)Gal(b1-4)[Fuc(a1-3)]GlcNAc
In short: as §1

[26] = biological target: Fuc(a1-3)[Gal(b1-4)]GlcNAc(b1-6)GalNAc
In short: as §1

[27] = biological target: Fuc(a1-3)[Gal(b1-4)]GlcNAc(b1-6)[Gal(b1-3)GlcNAc(b1-3)]Gal(b1-4)Glc
In short: as §1

[28] = biological target: Fuc(a1-3)[Gal(b1-4)]GlcNAc6S
In short: as §1

[29] = biological target: Fuc(a1-3)[Gal3S(b1-4)]Glc
In short: as §1

[30] = biological target: Fuc(a1-3)[Gal3S(b1-4)]GlcNAc
In short: as §1

[31] = biological target: Fuc(a1-3)[Gal3S(b1-4)]GlcNAc6S
In short: as §1

[32] = biological target: Fuc(a1-3)[GalNAc(b1-4)]GlcNAc
In short: as §1

[33] = biological target: Fuc(a1-3)[GalNAc(b1-4)]GlcNAc6S
In short: as §1

[34] = biological target: Fuc(a1-4)GlcNAc
In short: as §1

[35] = biological target: Fuc(b1-3)GlcNAc
In short: as §1

[36] = biological target: Gal(a1-2)Gal
In short: as §1

[37] = biological target: Gal(a1-3)Gal
In short: as §1

[38] = biological target: Gal(a1-3)Gal(b1-3)GlcNAc
In short: as §1

[39] = biological target: Gal(a1-3)Gal(b1-3)GlcNAc(b1-2)Man
In short: as §1

[40] = biological target: Gal(a1-3)Gal(b1-3)GlcNAc(b1-2)Man(a1-3)[Gal(a1-3)Gal(b1-3)GlcNAc(b1-2)Man(a1-6)]Man(b1-4)GlcNAc(b1-4)GlcNAc
In short: as §1

[41] = biological target: Gal(a1-3)Gal(b1-3)GlcNAc(b1-3)GalNAc
In short: as §1

[42] = biological target: Gal(a1-3)Gal(b1-3)GlcNAc(b1-6)GalNAc
In short: as §1

[43] = biological target: Gal(a1-3)Gal(b1-3)[Fuc(a1-4)]GlcNAc(b1-2)Man(a1-3)[Gal(a1-3)Gal(b1-3)[Fuc(a1-4)]GlcNAc(b1-2)Man(a1-6)]Man(b1-4)GlcNAc(b1-4)GlcNAc
In short: as §1

[44] = biological target: Gal(a1-3)Gal(b1-4)Glc
In short: as §1

[45] = biological target: Gal(a1-3)Gal(b1-4)GlcNAc
In short: as §1

B1: CLECb-Precomplexed (Mus musculus), P43025 (protein)
chain: MAKNGLVLCILVVSLLLDQTDGYPSRMKARKHSKRRVKAKDDDLKSQVEKLWREVNALKEMQALQTVCLRGTKVHKKCYLASEGLKHYHEANEDCISKGGTLVVPRNSDEINALRDYGKRSLPGVNDFWLGINDMVTEGKFLDVHGFAVSFLNWDRAQPSGGKRENCVLFSQSAQGKWSDEACRSSKRYICEFIIPTRTRPLEQKLISEEDLAANDILDYKDDDDKV
B1 was tested, and the “glycan array binding signal (z-score)” value [1] was 0.974, the “glycan array binding signal (z-score)” value [2] was -0.431 and the “glycan array binding signal (z-score)” value [3] was -0.175. For the same binder, the “glycan array binding signal (z-score)” value [4] was -0.139, the “glycan array binding signal (z-score)” value [5] was -0.336 and the “glycan array binding signal (z-score)” value [6] was -0.192. The “glycan array binding signal (z-score)” value [7] was -0.249, the “glycan array binding signal (z-score)” value [8] was 0.179 and the “glycan array binding signal (z-score)” value [9] was -0.51. The “glycan array binding signal (z-score)” value [10] was -0.35, the “glycan array binding signal (z-score)” value [11] was -0.188 and the “glycan array binding signal (z-score)” value [12] was -0.108. The “glycan array binding signal (z-score)” value [13] was 0.594, the “glycan array binding signal (z-score)” value [14] was -0.079 and the “glycan array binding signal (z-score)” value [15] was -0.291. The “glycan array binding signal (z-score)” value [16] was -0.126, the “glycan array binding signal (z-score)” value [17] was 0.269 and the “glycan array binding signal (z-score)” value [18] was 0.129. The “glycan array binding signal (z-score)” value [19] was -0.33, the “glycan array binding signal (z-score)” value [20] was 0.382 and the “glycan array binding signal (z-score)” value [21] was -0.171. The “glycan array binding signal (z-score)” value [22] was 0.205, the “glycan array binding signal (z-score)” value [23] was -0.511 and the “glycan array binding signal (z-score)” value [24] was -0.184. The “glycan array binding signal (z-score)” value [25] was -0.459, the “glycan array binding signal (z-score)” value [26] was -0.254 and the “glycan array binding signal (z-score)” value [27] was 0.092. For the same binder, the “glycan array binding signal (z-score)” value [28] was 1.84, the “glycan array binding signal (z-score)” value [29] was 0.449 and the “glycan array binding signal (z-score)” value [30] was -0.309. The “glycan array binding signal (z-score)” value [31] was -0.231, the “glycan array binding signal (z-score)” value [32] was -0.052 and the “glycan array binding signal (z-score)” value [33] was -0.189. The “glycan array binding signal (z-score)” value [34] was -0.447, the “glycan array binding signal (z-score)” value [35] was 0.055 and the “glycan array binding signal (z-score)” value [36] was -0.17. For the same binder, the “glycan array binding signal (z-score)” value [37] was -0.325, the “glycan array binding signal (z-score)” value [38] was -0.097 and the “glycan array binding signal (z-score)” value [39] was -0.564. The “glycan array binding signal (z-score)” value [40] was -0.036, the “glycan array binding signal (z-score)” value [41] was 0.142 and the “glycan array binding signal (z-score)” value [42] was -0.47. The “glycan array binding signal (z-score)” value [43] was 9.55, the “glycan array binding signal (z-score)” value [44] was -0.073 and the “glycan array binding signal (z-score)” value [45] was -0.28.
